# Measurements reported in the supplement of paper PMC9446081.
# Among all 39,000 compounds or so, about 220 (0.56%) showed activity. The list shows a part of the results.
# Test system: Escherichia coli K-12 BW25113
# Assay: relative growth (OD600 normalised to plate interquartile mean) (fraction); higher = less growth inhibition, active = 0.2 or less
# Settings: 50 µM; LB; incubation time: overnight (16-24 h)
# 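Also: static incubation at 37 °C against the wild-type strain, values averaged over two biological replicates.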
row,Compound,relative growth
1,COc1ccc(S(=O)(=O)N[C@@H]2CC[C@H](CCNC(=O)CN3CCOCC3)O[C@@H]2CO)cc1,inactive: 0.971
2,C[C@@H]1CN([C@@H](C)CO)C(=O)c2cc(NC(=O)Nc3ccc(F)cc3)ccc2O[C@@H](C)CCCCO[C@@H]1CN(C)Cc1ccc2c(c1)OCO2,inactive: 1.02
3,C[C@H](CO)N1C[C@H](C)[C@@H](CN(C)S(=O)(=O)c2cn(C)cn2)Oc2ccc(NS(C)(=O)=O)cc2C1=O,inactive: 0.983
4,C[C@@H]1CN([C@H](C)CO)S(=O)(=O)c2ccc(C#CC3(O)CCCC3)cc2O[C@H]1CN(C)C(=O)Nc1ccccc1,inactive: 0.972
5,Nc1ncnc2[nH]cnc12,inactive: 1.04
6,C[C@@H]1CN([C@@H](C)CO)C(=O)c2cc(-c3ccncc3)cnc2O[C@H]1CN(C)C(=O)Nc1ccc2c(c1)OCO2,inactive: 0.98
7,C[C@H]1CN([C@@H](C)CO)C(=O)Cc2cc(NC(=O)CCC(F)(F)F)ccc2O[C@@H]1CN(C)Cc1ccc(Cl)c(Cl)c1,inactive: 0.985
8,C[C@@H]1CCCCO[C@H](CN(C)Cc2ccccc2)[C@H](C)CN([C@H](C)CO)C(=O)c2cc(NC(=O)Nc3ccc(F)cc3)ccc2O1,inactive: 0.991
9,CCN1CCN(C2CCN(Cc3cc(=O)n(C)c(=O)n3C)CC2)C1=O,inactive: 1.01
10,O=C(C[C@@H]1CC[C@H](NS(=O)(=O)c2ccc(F)cc2)[C@H](CO)O1)N1CCC(Cc2ccccc2)CC1,inactive: 1.01
11,NCC(=O)Nc1nccs1,inactive: 0.948
12,CN1CCN(CCO)C(=O)C12CCN([C@H]1CCOC1)CC2,inactive: 1.01
13,C[C@H](CO)N1C[C@H](C)[C@@H](CN(C)C(=O)Nc2ccc(F)cc2)Oc2ccc(NC(=O)Cn3cnnn3)cc2C1=O,inactive: 1.01
14,C[C@@H]1CN([C@@H](C)CO)C(=O)c2cc(NS(C)(=O)=O)ccc2O[C@@H]1CN(C)Cc1ccc2c(c1)OCO2,inactive: 1.01
15,COc1cccc(-c2cn(CC[C@H]3CC[C@H](NC(=O)CN(C)C)[C@@H](CO)O3)nn2)c1,inactive: 0.976
16,Cc1ccc(S(=O)(=O)N(C)C[C@@H]2Oc3ncc(C#CC4(O)CCCC4)cc3C(=O)N([C@H](C)CO)C[C@H]2C)cc1,inactive: 1.05
17,COCC#Cc1ccc2c(c1)O[C@H](CN(C)Cc1ccccc1F)[C@H](C)CN([C@@H](C)CO)S2(=O)=O,inactive: 1.05
18,COc1ccc([C@H]2C/C=C\C[C@H](c3cccc(Cl)c3)NC(=O)[C@@H](c3ccccc3)CC(=O)N2)c(OC)c1,inactive: 0.99
19,Cc1noc(C)c1NC(=O)Nc1ccc2c(c1)C(=O)N([C@H](C)CO)C[C@H](C)[C@@H](CN(C)S(=O)(=O)c1ccccc1)OCCCC[C@H](C)O2,inactive: 0.985
20,C[N+](C)(C)C[C@H](O)CC(=O)O,inactive: 0.956
21,COCC(=O)N(C)C[C@H]1Oc2cc(C#Cc3ccccc3)ccc2S(=O)(=O)N([C@H](C)CO)C[C@@H]1C,inactive: 1.02

row,Compound,relative growth
1,CC(C)c1nc(N(C)S(C)(=O)=O)nc(-c2ccc(F)cc2)c1C=CC(O)CC(O)CC(=O)[O-].[Ca+2] (stereo not drawn),inactive: 0.985
2,O=C(/C=C/c1ccc(CNc2ccc([C@H]3O[C@@H](CSc4ccncc4)C[C@H](c4ccccc4)O3)cc2)cc1)NO,inactive: 0.976
3,Nc1cnc2ccc(Cl)nn12,inactive: 1.01
4,C[C@H]1CN([C@@H](C)CO)C(=O)c2cc(NC(=O)Cc3ccccc3)ccc2O[C@H]1CN(C)C(=O)Nc1ccc(C(F)(F)F)cc1,inactive: 0.984
5,C[C@H](CO)N1C[C@H](C)[C@@H](CN(C)Cc2ccc(Oc3ccccc3)cc2)Oc2ccc(NC(=O)CCC(F)(F)F)cc2C1=O,inactive: 0.997
6,C[C@@H]1CN([C@H](C)CO)S(=O)(=O)c2ccc(C#CCN(C)C)cc2O[C@@H]1CN(C)S(=O)(=O)c1cccc(F)c1,inactive: 1
7,CN(C)C(=O)C[C@@H]1CC[C@H]2[C@@H](COc3ccc(NS(=O)(=O)c4cccc(F)c4)cc3C(=O)N2C)O1,inactive: 0.975
8,Cc1noc(C)c1S(=O)(=O)Nc1cccc2c1O[C@H](CN(C)S(=O)(=O)c1ccc(Cl)cc1)[C@H](C)CN([C@@H](C)CO)C2=O,inactive: 0.998
9,COc1ccc(S(=O)(=O)Nc2ccc3c(c2)C(=O)N([C@@H](C)CO)C[C@@H](C)[C@H](CN(C)C(=O)CCC(F)(F)F)OCCCC[C@@H](C)O3)cc1,inactive: 0.988
10,C[C@@H]1CCCCO[C@@H](CN(C)C(=O)CCCN(C)C)[C@H](C)CN([C@H](C)CO)C(=O)c2cc(NC(=O)Nc3cccc4ccccc34)ccc2O1,inactive: 0.996
11,COc1ccc(NC(=O)Nc2ccc3c(c2)C(=O)N([C@@H](C)CO)C[C@@H](C)[C@@H](CN(C)C(=O)Nc2ccc(OC)cc2)OCCCC[C@H](C)O3)cc1,inactive: 1
12,CO[C@@H](CN(C)S(=O)(=O)c1ccc(C)cc1)[C@H](C)CN([C@@H](C)CO)S(=O)(=O)c1cccc(Cl)c1,inactive: 1.04
13,CC[C@@H](O)CNNC(=O)OC(C)(C)C,inactive: 0.992
14,CN(C)CCCCNC(=O)[C@@H]1C[C@@H]2C(=O)N[C@@H](CCCCN(C)C)C(=O)N2[C@@H]1c1cccc(OCCO)c1,inactive: 0.998
15,Cl.N=C(N)n1cccn1,active: 0.042
16,COc1ccc(NC(=O)Nc2cccc3c2O[C@@H](CN(C)C(=O)Nc2ccc(C(F)(F)F)cc2)[C@H](C)CN([C@@H](C)CO)C3=O)cc1,inactive: 0.87
17,O=C(NCC(=O)N1CC[C@H](N[C@H]2CC[C@@](O)(c3ccc(-c4ncccn4)cn3)CC2)C1)c1cccc(C(F)(F)F)c1,inactive: 1.05
18,COc1ccc(NC(=O)Nc2ccc3c(c2)C(=O)N([C@@H](C)CO)C[C@H](C)[C@H](CN(C)C(=O)Nc2ccc(OC)cc2)OCCCC[C@@H](C)O3)cc1,inactive: 1.01
19,COc1ccc(CN(C)C[C@H]2OCCCC[C@@H](C)Oc3ccc(NC(=O)Nc4ccc5c(c4)OCO5)cc3C(=O)N([C@H](C)CO)C[C@@H]2C)cc1,inactive: 1
20,CC(C)CC#Cc1cnc2c(c1)C(=O)N([C@H](C)CO)C[C@H](C)[C@@H](CN(C)C(=O)CN1CCOCC1)O2,inactive: 0.963
21,COc1cc(O)cc(O)c1C(=O)c1ccccc1,inactive: 0.746

row,Compound,relative growth
1,O=C(O)/C=C/c1cnc[nH]1,inactive: 0.986
2,COc1ccc(S(=O)(=O)N(C)C[C@H]2Oc3ccc(NC(=O)CCN4CCOCC4)cc3C(=O)N([C@H](C)CO)C[C@@H]2C)cc1,inactive: 0.978
3,C[C@H]1CN([C@@H](C)CO)C(=O)Cc2cc(NS(=O)(=O)c3cn(C)cn3)ccc2O[C@H]1CN(C)S(=O)(=O)c1ccc(Cl)cc1,inactive: 1
4,CC(=O)N(C)C[C@H]1Oc2ncc(C#CC(C)(C)O)cc2C(=O)N([C@@H](C)CO)C[C@@H]1C,inactive: 0.983
5,Cc1cc(C(=O)Nc2cccc3c2O[C@@H](CN(C)Cc2ccc(Oc4ccccc4)cc2)[C@H](C)CN([C@H](C)CO)C3=O)n(C)n1,inactive: 1
6,COc1ccc(CN(C)C[C@H]2OCCCC[C@H](C)Oc3ccc(NS(=O)(=O)c4c(C)noc4C)cc3C(=O)N([C@H](C)CO)C[C@@H]2C)cc1,inactive: 1.02
7,CN(C)CCN1CCc2ncc(Cn3cncn3)n2CC1,inactive: 0.99
8,CC(C)CC#Cc1ccc2c(c1)O[C@@H](CN(C)CC1CCOCC1)[C@@H](C)CN([C@@H](C)CO)S2(=O)=O,inactive: 1.01
9,CC(C)(C)[S@@](=O)N1Cc2cc(C(=O)N3CCCCC3)nc(-c3cccc(-c4cccc(C#N)c4)c3)c2[C@H]1CCO,inactive: 1.01
10,O=C(C[C@H]1C[C@H]2c3cc(NS(=O)(=O)c4ccc(F)cc4)ccc3O[C@H]2[C@H](CO)O1)NCc1cccc(F)c1,inactive: 1.01
11,C[C@@H]1CN([C@@H](C)CO)C(=O)c2cccc(NC(=O)c3cnccn3)c2O[C@@H]1CN(C)Cc1ccccc1,inactive: 0.99
12,C[C@H]1CN([C@@H](C)CO)C(=O)c2cc(NC(=O)Cn3cnnn3)ccc2O[C@@H]1CN(C)C(=O)Nc1ccc2c(c1)OCO2,inactive: 0.991
13,CCOC(=O)[C@H]1C/C=C/C[C@H](C(=O)OCC)C(=O)O[C@H]2[C@@H](OC)O[C@H](CO)[C@@H](OC(=O)Nc3ccc(OC)cc3)[C@@H]2OC1=O,inactive: 1.03
14,C[C@H]1CN([C@@H](C)CO)C(=O)Cc2cc(NC(=O)Nc3ccc(C(F)(F)F)cc3)ccc2O[C@@H]1CN(C)Cc1ccc(Cl)c(Cl)c1,inactive: 0.979
15,COC(=O)C[C@@H]1CC[C@@H]2[C@@H](COc3ccc(NS(=O)(=O)c4ccccc4Cl)cc3C(=O)N2C)O1,inactive: 1.03
16,CC(C)CS(=O)(=O)N1CCC2(CC1)[C@H]1CN(c3ncccn3)C[C@@H]1C(=O)N2C,inactive: 0.985
17,COc1cc(/C=C/C(=O)CC2=N/C(=N/CCc3ccccc3)S[C@H](c3ccc(O)c(OC)c3)C2)ccc1O,inactive: 1.03
18,C[Si](C)(C)C#CC(=O)NO,inactive: 0.998
19,C[C@H](CO)N1C[C@H](C)[C@@H](CN(C)C(=O)Nc2ccc3c(c2)OCO3)OCCCC[C@H](C)Oc2ccc(NC(=O)CCC(F)(F)F)cc2C1=O,inactive: 1
20,Cn1cnc(S(=O)(=O)N[C@H]2CC[C@@H](CC(=O)Nc3ccccc3)O[C@H]2CO)c1,inactive: 1.02
21,COc1ccc(S(=O)(=O)Nc2ccc3c(c2)C(=O)N([C@H](C)CO)C[C@@H](C)[C@H](CN(C)C(=O)Nc2ccc(F)cc2)OCCCC[C@H](C)O3)cc1,inactive: 1.03
